Data published in the BET-seq Pho4 binding data (Le et al. 2018).
Some of the results follow. Values were computed here from the reads of four pooled replicates and scatter widely.

Each sequence was assayed against T1, Pho4 (S. cerevisiae) (UniProt P07270) (assay: relative binding free energy (BET-seq); higher = weaker binding). Conditions: reference: library average.
T1 sequence: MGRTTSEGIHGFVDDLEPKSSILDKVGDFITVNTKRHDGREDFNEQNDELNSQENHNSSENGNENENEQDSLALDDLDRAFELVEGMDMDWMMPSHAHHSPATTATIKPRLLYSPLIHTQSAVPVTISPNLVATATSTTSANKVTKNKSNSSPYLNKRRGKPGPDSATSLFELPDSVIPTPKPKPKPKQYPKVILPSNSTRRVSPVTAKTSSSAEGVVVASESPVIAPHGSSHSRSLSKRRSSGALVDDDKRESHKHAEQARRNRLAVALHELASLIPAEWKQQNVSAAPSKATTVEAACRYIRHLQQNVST

Row | Sequence | relative binding free energy
1 | CGGAGCACGTGTGATG | 0.07 kcal/mol
2 | CTACTCACGTGTGTGG | 0.09 kcal/mol
3 | AGCAGCACGTGGATGT | 0 kcal/mol
4 | AGTAGCACGTGGTGGT | -0.1 kcal/mol
5 | TGGTTCACGTGCGCGA | 0.16 kcal/mol
6 | TAAATCACGTGGTTGA | 0.15 kcal/mol
7 | CGGGTCACGTGAAGGT | 0.2 kcal/mol
8 | GATTACACGTGGTAGT | 0.08 kcal/mol
9 | TTGAACACGTGTTCTT | -0.05 kcal/mol
10 | GCGGGCACGTGTGGTG | -0.01 kcal/mol
11 | CTGGTCACGTGGGAAG | -0.1 kcal/mol
12 | GGGGACACGTGAACGG | 0.3 kcal/mol
13 | AGAGTCACGTGTGCGT | -0.02 kcal/mol
14 | TGTCGCACGTGAGGAA | 0.21 kcal/mol
15 | TAGCTCACGTGTTGAT | 0.17 kcal/mol
16 | AGGGGCACGTGTCTAG | -0.24 kcal/mol
17 | GTTCGCACGTGAGGGA | 0.11 kcal/mol
18 | CTGCGCACGTGGGGGA | -0.26 kcal/mol
19 | GTGTGCACGTGGTCTA | -0.16 kcal/mol
20 | TCAATCACGTGTTAGT | 0.07 kcal/mol
21 | TTTAGCACGTGGCGCG | 0 kcal/mol

Row | Sequence | relative binding free energy
22 | TTGAGCACGTGGGGAT | -0.15 kcal/mol
23 | ACTGGCACGTGGAGAT | -0.04 kcal/mol
24 | TGGAGCACGTGGTTTG | -0.03 kcal/mol
25 | TGTTGCACGTGGGGAA | -0.07 kcal/mol
26 | TCATGCACGTGTGGCG | -0.01 kcal/mol
27 | TATGACACGTGTCGTT | -0.03 kcal/mol
28 | CTTAACACGTGGAGGG | -0.03 kcal/mol
29 | AAAGGCACGTGTAATG | 0.04 kcal/mol
30 | ATGTGCACGTGCGGCG | -0.24 kcal/mol
31 | GTTGTCACGTGCGGCC | 0.15 kcal/mol
32 | GTGCACACGTGGGATT | 0.03 kcal/mol
33 | CGGTTCACGTGGTGAT | 0.14 kcal/mol
34 | ATGTTCACGTGAGCGT | 0.3 kcal/mol
35 | TATGACACGTGTACGG | 0.01 kcal/mol
36 | CGGGGCACGTGGTCGG | -0.26 kcal/mol
37 | ATAGTCACGTGATGTA | 0.17 kcal/mol
38 | TCTTACACGTGTTGGT | 0.11 kcal/mol
39 | TTGGTCACGTGACTAG | 0.14 kcal/mol
40 | AAGGCCACGTGTTGTG | -0.17 kcal/mol
41 | AGAAACACGTGGTAGG | 0.03 kcal/mol
42 | TGTATCACGTGGTCAG | 0.17 kcal/mol

Row | Sequence | relative binding free energy
43 | GGGTGCACGTGCAAGG | 0.09 kcal/mol
44 | GTTTACACGTGTACTT | 0.05 kcal/mol
45 | ATATACACGTGCTTTT | -0.05 kcal/mol
46 | GGTGACACGTGTCATG | 0.14 kcal/mol
47 | TGATGCACGTGTGGTC | 0.09 kcal/mol
48 | ATGGTCACGTGTGAAT | 0.26 kcal/mol
49 | GATGACACGTGTAAGT | 0.12 kcal/mol
50 | AAGTACACGTGGGGCA | -0.09 kcal/mol
51 | CGTGGCACGTGGTGCG | -0.19 kcal/mol
52 | GTATCCACGTGTTTGG | 0.03 kcal/mol
53 | TGCGTCACGTGGGTAC | -0.02 kcal/mol
54 | TTGAGCACGTGGGTAC | -0.24 kcal/mol
55 | GGGGACACGTGTCTTG | -0.02 kcal/mol
56 | TGTCGCACGTGCTTTG | -0.13 kcal/mol
57 | AAGCGCACGTGGTTGT | -0.16 kcal/mol
58 | TCGGTCACGTGTGCAT | 0.21 kcal/mol
59 | GTGTGCACGTGATTTT | 0.16 kcal/mol
60 | GTGGTCACGTGAAAGT | 0.48 kcal/mol
61 | GTGGCCACGTGTTTCG | -0.03 kcal/mol
62 | TTTACCACGTGGCTTG | 0.03 kcal/mol
63 | AAATGCACGTGTTTTG | -0.07 kcal/mol
